“And” between values parts separate entries of the source, which are not always exact repeats. Identical values can stand only once. The list shows a part of the results. These are further read-outs of the screen, such as a control signal, another cell line or another target. No call is given for them.
Tests used:
Experiment in all cases: Primary Screen for Target Class Profiling of Small Molecule Inhibitors of Methyltransferases
[1] = target: Glycine N-methyltransferase (Homo sapiens) (UniProt Q14749); conditions: purified enzyme, MTase-Glo SAH luminescence; measured here: GNMT inhibition; at 40 µM; stronger effect = lower value
Outline: (§1)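 Each enzyme was reacted with SAM and its substrate, with compounds tested once at 40 uM; SAH formed was read by MTase-Glo luminescence.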

[2] = target: Guanidinoacetate N-methyltransferase (Homo sapiens) (UniProt Q14353); conditions: purified enzyme, MTase-Glo SAH luminescence; measured here: GAMT inhibition; at 40 µM; stronger effect = lower value
Outline: as §1

[3] = target: Histamine N-methyltransferase (Homo sapiens) (UniProt P50135); conditions: purified enzyme, MTase-Glo SAH luminescence; measured here: HNMT inhibition; at 40 µM; stronger effect = lower value
Outline: as §1

[4] = target: Nicotinamide N-methyltransferase (Homo sapiens) (UniProt P40261); conditions: purified enzyme, MTase-Glo SAH luminescence; measured here: NNMT inhibition; at 40 µM; stronger effect = lower value
Outline: as §1

[5] = target: Phenylethanolamine N-methyltransferase (Homo sapiens) (UniProt P11086); conditions: purified enzyme, MTase-Glo SAH luminescence; measured here: PNMT inhibition; at 40 µM; stronger effect = lower value
Outline: as §1
% is scaled to controls: 0 for no effect and ±100 for the full control effect.

SMILES: CCOC(=O)c1cc2n(n1)CC(C)(C(=O)NC1CCCCC1)N(c1ccc(C)c(C)c1)C2=O (stereo not given)
- activity change, negative = inhibition [1]: 6.32%
- activity change, negative = inhibition [2]: 0.819%
- activity change, negative = inhibition [3]: -2.98%
- activity change, negative = inhibition [4]: 10.6%
- activity change, negative = inhibition [5]: 5.8%

SMILES: Cc1occc(=O)c1O[C@@H]1O[C@H](COC(=O)CC(C)(O)CC(=O)O)[C@@H](O)[C@H](O)[C@H]1O (stereo not given in full)
- activity change, negative = inhibition [1]: 2.92%
- activity change, negative = inhibition [2]: -2.95%
- activity change, negative = inhibition [3]: 7.61%
- activity change, negative = inhibition [4]: -15.9%
- activity change, negative = inhibition [5]: 4.16%

SMILES: COc1ccc(C2=NOC3(CCN([S+](=O)([O-])c4cccc(C(F)(F)F)c4)C3)C2)cc1 (stereo not given)
- activity change, negative = inhibition [1]: -3.24%
- activity change, negative = inhibition [2]: -1.99%
- activity change, negative = inhibition [3]: -0.964%
- activity change, negative = inhibition [4]: -4.81%
- activity change, negative = inhibition [5]: -10.1%

SMILES: COc1ccc(-c2nnc3n2CCN([S+](=O)([O-])c2c(C)noc2C)C3)cc1
- activity change, negative = inhibition [1]: -6.03%
- activity change, negative = inhibition [2]: -6.89%
- activity change, negative = inhibition [3]: -2.82%
- activity change, negative = inhibition [4]: -11.2%
- activity change, negative = inhibition [5]: -9.24%

SMILES: COc1ccc(C2CC(c3ccccc3)=NN2c2ccc(S(N)(=O)=O)cc2)cc1 (stereo not given)
- activity change, negative = inhibition [1]: 5.17%
- activity change, negative = inhibition [2]: -10.9%
- activity change, negative = inhibition [3]: 6.06%
- activity change, negative = inhibition [4]: -19.6%
- activity change, negative = inhibition [5]: -7.12%

SMILES: CC1=CC(=O)CC(C)(C)C1/C=C/C(C)OC1OC(COC2OCC(O)C(O)C2O)C(O)C(O)C1O (stereo not given)
- activity change, negative = inhibition [1]: -2.54%
- activity change, negative = inhibition [2]: -9.99%
- activity change, negative = inhibition [3]: 6.13%
- activity change, negative = inhibition [4]: -18.3%
- activity change, negative = inhibition [5]: -0.205%

SMILES: CC(C)Oc1ccc2c(NC(=O)CN3CCCC3=O)nn(Cc3ccccc3)c2c1
- activity change, negative = inhibition [1]: -6.35%
- activity change, negative = inhibition [2]: -7.86%
- activity change, negative = inhibition [3]: -4.68%
- activity change, negative = inhibition [4]: -18.2%
- activity change, negative = inhibition [5]: -3.29%

SMILES: C[C@@]1(O)CCN(Cc2ccc(Br)o2)C[C@H]1N1CCCC1
- activity change, negative = inhibition [1]: -8.27%
- activity change, negative = inhibition [2]: 0.025%
- activity change, negative = inhibition [3]: -0.853%
- activity change, negative = inhibition [4]: 0.699%
- activity change, negative = inhibition [5]: 5.35%

SMILES: COc1ccc(CNC(=O)c2cc3n(n2)CC(C)(C(=O)NC2CCCCCC2)N(C)C3=O)cc1OC (stereo not given)
- activity change, negative = inhibition [1]: 3.66%
- activity change, negative = inhibition [2]: 4.6%
- activity change, negative = inhibition [3]: -0.258%
- activity change, negative = inhibition [4]: 4.08%
- activity change, negative = inhibition [5]: -0.493%

SMILES: COc1ccc2c(c1)C(COCc1ccc(C(=O)O)cc1)=CC(C)(C)CO2
- activity change, negative = inhibition [1]: -6.61%
- activity change, negative = inhibition [2]: -3.42%
- activity change, negative = inhibition [3]: -1.2%
- activity change, negative = inhibition [4]: -14.3%
- activity change, negative = inhibition [5]: -7.67%

SMILES: Cc1ccccc1Cn1nc2n(CCC(C)C)c(=O)c3ccc(C(=O)NCC(C)C)cc3n2c1=O
- activity change, negative = inhibition [1]: -7.01%
- activity change, negative = inhibition [2]: 4.28%
- activity change, negative = inhibition [3]: 0.483%
- activity change, negative = inhibition [4]: 3.65%
- activity change, negative = inhibition [5]: 1.62%

SMILES: O=C(c1ccc2c(=O)nc3c(-c4ccccc4)n[nH]n3c2c1)N1CCN(c2ccccn2)CC1
- activity change, negative = inhibition [1]: -1.69%
- activity change, negative = inhibition [2]: 3.23%
- activity change, negative = inhibition [3]: 0.354%
- activity change, negative = inhibition [4]: -1.7%
- activity change, negative = inhibition [5]: -0.954%

SMILES: CC1=C2C(=O)O[C@@H](c3ccoc3)[C@]2(C)CCC1
- activity change, negative = inhibition [1]: -6.41% and -5.5%
- activity change, negative = inhibition [2]: -16% and -0.316%
- activity change, negative = inhibition [3]: 2.17% and 0.276%
- activity change, negative = inhibition [4]: -27% and -16%
- activity change, negative = inhibition [5]: -1.98% and -3.53%

SMILES: COCCCNC(=O)CCc1nnc2n(Cc3ccc(C)cc3)c(=O)c3ccccc3n12
- activity change, negative = inhibition [1]: -7.75%
- activity change, negative = inhibition [2]: 4.17%
- activity change, negative = inhibition [3]: -1.71%
- activity change, negative = inhibition [4]: 7.42%
- activity change, negative = inhibition [5]: -5.58%

SMILES: COc1ccc(CN2CC[C@H](c3nc(C)no3)[C@H](NC(=O)C3CC3)C2)cc1
- activity change, negative = inhibition [1]: -0.492%
- activity change, negative = inhibition [2]: 1.84%
- activity change, negative = inhibition [3]: 2.76%
- activity change, negative = inhibition [4]: -6.19%
- activity change, negative = inhibition [5]: -2.37%

SMILES: COC(=O)[C@H]1[C@H]2C[C@@H]3c4[nH]c5cc(OC)ccc5c4CCN3C[C@H]2C[C@@H](OC(=O)/C=C/c2cc(OC)c(OC)c(OC)c2)[C@@H]1OC
- activity change, negative = inhibition [1]: 0.095%
- activity change, negative = inhibition [2]: 9.06%
- activity change, negative = inhibition [3]: 2.98%
- activity change, negative = inhibition [4]: -25.4%
- activity change, negative = inhibition [5]: 3.53%

SMILES: COCCOc1ccc2c(c1)ncn2-c1ccc2cccc(N3CCC(N)CC3)c2n1
- activity change, negative = inhibition [1]: -14.1%
- activity change, negative = inhibition [2]: -51.9%
- activity change, negative = inhibition [3]: -46.4%
- activity change, negative = inhibition [4]: -43%
- activity change, negative = inhibition [5]: -55.4%

SMILES: O=C1COc2ccc(Nc3ccc(C(F)(F)F)cc3)nc2CN1
- activity change, negative = inhibition [1]: -11.9%
- activity change, negative = inhibition [2]: -2.81%
- activity change, negative = inhibition [3]: -0.516%
- activity change, negative = inhibition [4]: -7.78%
- activity change, negative = inhibition [5]: -5.79%
